The campaign covered roughly 410,000 compounds. About 490 (0.12%) were called active. The shares of active, inactive and inconclusive entries below differ from those in the screen. Calls come from the whole dose curve; as a rule, active = well fitted inhibition curve with a large enough effect; inconclusive = small, poorly fitted or top-dose-only effect; inactive = flat fitted curve, though single readings scatter. Where the call is inconclusive, the potency comes from a doubtful curve fit.
These compounds were tested against pyruvate kinase (Trypanosoma brucei) (UniProt Q57TT1) (assay: qHTS of Trypanosoma Brucei Inhibitors). Details: TbPYK enzyme, Kinase-Glo Plus ATP luminescence, 45 min; series mostly up to 76.8 µM; activity, negative = inhibition: at the top concentration.
How it was run: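 Assay buffer: 50 mM TEA pH 7.2, 100 mM KCl, 10 mM MgCl2, 0.05% BSA, 0.01% Tween-20. Pyruvate kinase from T. brucei plus substrate met compound, then ADP (130 uM final). Luminescence was read post 45 min RT.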
% is set by controls: 0 for no effect and ±100 for the full control effect; potency is the fitted concentration of half-maximal effect; tags give direction and shape of the fitted curve.
Note: nearly all actives have a fitted effect of over 50% in size.

Row | SMILES | Potency | activity, negative = inhibition
1 | Cc1c(C(=O)NCc2n[nH]c(=S)n2-c2ccc(F)cc2)cccc1[N+](=O)[O-] | inconclusive: 15.8 µM [inhibitor, partial curve, poor fit] | 
2 | Nc1ccc(/C=C/c2ccc(N)cc2S(=O)(=O)O)c(S(=O)(=O)O)c1 | inconclusive: 35.5 µM [inhibitor, partial curve, poor fit] | 
3 | CCOc1ncnc2c1[nH]c1ccccc12 |  | inactive: -10.6%
4 | Cc1cc(NC(=O)c2ccccc2)ncc1NC(=O)c1ccco1 | inconclusive: 31.6 µM [inhibitor, partial curve, poor fit] | 
5 | O=[N+]([O-])c1cccc(/C=N/n2c(-c3cccnc3)n[nH]c2=S)c1 | active: 2.24 µM | 
6 | CC1(C)CC(=O)C(Sc2nnc(-c3ccc(O)cc3)n2CC2CCCO2)C(=O)C1 (stereo not drawn) | inconclusive: 31.6 µM [inhibitor, single point] | 
7 | CC(C)Cc1nnc(NC(=O)C2CCN(C(=O)c3ccc(F)cc3)CC2)s1 |  | inactive: -10.8%
8 | Cc1ccc([N+](=O)[O-])cc1S(=O)(=O)N1CCn2cccc2C1c1ccccc1 (stereo not drawn) |  | inactive: 2.47%
9 | CC1CCc2c(sc(NC(=O)CCC(=O)O)c2C(=O)NC2CC2)C1 (stereo not drawn) | inconclusive: 15.8 µM [inhibitor, partial curve] | 
10 | Cc1ccc(NC(=O)c2cc(N3C(=O)C=CC3=O)ccc2Cl)cc1C | inconclusive: 28.2 µM [inhibitor, single point] | 
11 | CN1CCN(C(=S)c2ccc([N+](=O)[O-])cc2)CC1 | inconclusive: 15.8 µM [inhibitor, partial curve, poor fit] | 
12 | COc1ccccc1Cn1cc(C(=O)c2ccc(C)cc2)c(=O)c2cc(C)ccc21 |  | inactive: -0.22%
13 | c1ccc(CCc2nn3c(Cn4cnc5ccccc54)nnc3s2)cc1 | inconclusive: 12.6 µM [inhibitor, partial curve, poor fit] | 
14 | COc1ccccc1C=C1CCc2ccccc2C1=O | inconclusive: 28.2 µM [inhibitor, single point] | 
15 | O=C(O)c1ccc2nc(-c3cc4cccc(O)c4oc3=O)[nH]c2c1 | active: 20 µM | 
16 | COc1ccc(CC(=O)Nc2cccc(C(=O)O)c2C)cc1 |  | inactive: -21.6%
17 | CCCNC(=O)CSc1nnc(NC(=O)C2CC(=O)N(c3ccccc3OC)C2)s1 (stereo not drawn) | inconclusive: 50.1 µM [inhibitor, single point] | 
18 | CCOc1ccc(S(=O)(=O)Nc2ccc3c(c2)OCO3)cc1 |  | inactive: -1.41%
19 | COc1ccc(C(=O)CCNc2ccc(F)cc2)cc1 |  | inactive: 1.66%
20 | Cc1c(C(=O)N2C[C@@H](C)O[C@@H](C)C2)oc2c(F)cccc12 |  | inactive: 6.6%
21 | C=CCn1c(-c2cc3c(s2)CCC(CC)C3)n[nH]c1=S (stereo not drawn) | inconclusive: 28.2 µM [inhibitor, partial curve, poor fit] | 
22 | Cn1ccc2c(-c3cccnc3)cc3c(c21)C1CCC3O1 (stereo not drawn) |  | inactive: -9.33%
23 | O=[N+]([O-])c1ccc(SCCc2ccncc2)cc1 | inconclusive: 35.5 µM [inhibitor, single point] | 
24 | CC(C)C[C@@H](CN)NC(=O)c1nc[nH]c1C(=O)N[C@@H](C)C(=O)CNC[C@H](C)NC(=O)c1nc[nH]c1C(=O)N[C@@H](CC(=O)O)C(=O)O | inconclusive: 28.2 µM [inhibitor, single point] | 
25 | CCCc1cc(=O)[nH]c2nnc(SCC(=O)Nc3nnc(SCC)s3)n12 | inconclusive: 11.2 µM [inhibitor, partial curve] | 

Row | SMILES | Potency | activity, negative = inhibition
26 | COc1ccccc1NC(=O)COC(=O)c1oc2ccccc2c1C |  | inactive: 1.8%
27 | CN(C)c1ccc(-c2ccnc3c2CC(C)(C(=O)Nc2cccc(OC(F)(F)F)c2)O3)cc1 (stereo not drawn) |  | inactive: 0.92%
28 | CSC1=NS(=O)(=O)c2c(C)nn(C)c2S1 | active: 2.51 µM | 
29 | CCN(CC)S(=O)(=O)c1cc(NC(=O)C2=COCCO2)ccc1Cl |  | inactive: 0.635%
30 | Cc1ccc(-c2csc3ncn(-n4c(C)ccc4C)c(=O)c23)o1 | inconclusive: 22.4 µM [inhibitor, partial curve] | 
31 | COc1ccc(CNC(=O)c2sccc2C)cc1 |  | inactive: -1.18%
32 | C[C@H](CO)N1C[C@H](C)[C@@H](CN(C)S(=O)(=O)c2ccc(-c3ccccc3)cc2)OCc2cn(nn2)CCCC1=O |  | inactive: 5.35%
33 | COc1ccc(NC(=O)CC(C)C)c(OC)c1 | inconclusive: 31.6 µM [inhibitor, single point] | 
34 | Fc1ccc(-c2csc(N3CCC(c4ccccc4)C3)n2)cc1 (stereo not drawn) | inconclusive: 7.08 µM [inhibitor, partial curve, poor fit] | 
35 | COc1ccc(NC(=O)CCCS(=O)(=O)c2nc(-c3ccccc3OC)cc(C(F)(F)F)n2)c(OC)c1 |  | inactive: 0.737%
36 | CN(C)c1ccc(/C=N/NC(=O)C(O)(c2ccccc2)c2ccccc2)o1 | inconclusive: 31.6 µM [inhibitor, single point] | 
37 | N#Cc1c(SCC(=O)Nc2nncs2)sc2c(O)cc(=O)[nH]c12 |  | inactive: -16.5%
38 | Cn1c(SCC(=O)N2CCOCC2)ncc(C(=O)Nc2ccc(F)cc2)c1=O |  | inactive: 2.73%
39 | N#CC1=C2SCN(c3ccccc3)CN2C(=O)CC1c1ccccc1Cl (stereo not drawn) | inconclusive: 7.08 µM [inhibitor, partial curve, poor fit] | 
40 | Oc1ccc(C(=S)N2CCN(Cc3ccccc3)CC2)cc1 | inconclusive: 7.08 µM [inhibitor, partial curve, poor fit] | 
41 | COc1cccc(CNC(=O)Cn2c(=O)cc(C)c3c(C)nn(C)c32)c1OC |  | inactive: -1.23%
42 | c1ccc2nc3c(cc2c1)CCCCC3 | inconclusive: 35.5 µM [inhibitor, single point] | 
43 | CC(=O)Nc1ccc(C=C2C(=O)NC(=O)NC2=O)cc1 | inconclusive: 35.5 µM [inhibitor, partial curve, poor fit] | 
44 | CCC(C)NC(=O)c1ccc(C(=O)c2ccccc2)cc1 (stereo not drawn) |  | inactive: -0.582%
45 | S=c1[nH]nc(Nc2cccc(Cl)c2)s1 | inconclusive: 14.1 µM [inhibitor, partial curve, poor fit] | 
46 | Cc1cccc(C(=O)NC(=S)NNC(=O)c2cccs2)c1 | inconclusive: 11.2 µM [inhibitor, single point] | 
47 | CCN(CC)S(=O)(=O)c1ccc(C(=O)NC(=S)N(CCC#N)Cc2cccnc2)cc1 | inconclusive: 12.6 µM [inhibitor, partial curve, poor fit] | 
48 | COc1ccc(C2NC(=S)N3C(c4ccc(OC)c(OC)c4)NC(=S)N23)cc1OC (stereo not drawn) |  | inactive: -5.14%
49 | Cc1ccccc1-n1c(-c2ccc(=O)[nH]n2)n[nH]c1=S | inconclusive: 44.7 µM [inhibitor, partial curve, poor fit] | 
50 | CCOC(=O)COc1ccccc1/C=C\[N+](=O)[O-] | inconclusive: 39.8 µM [inhibitor, single point] | 

Row | SMILES | Potency | activity, negative = inhibition
51 | CCCC(C)C(=O)Nc1nnc(C)s1 (stereo not drawn) | inconclusive: 39.8 µM [inhibitor, single point] | 
52 | COc1ccc(OC)c(C2CC(=O)N3CN(c4ccccc4)CSC3=C2C#N)c1 (stereo not drawn) | active: 3.55 µM | 
53 | CC(C)NC(=O)C1=CC(c2ccc3c(c2)OCO3)=NS(=O)(=O)N1C |  | inactive: -1.57%
54 | COc1ccccc1/C=C/C=N/n1c(-c2ccco2)n[nH]c1=S | inconclusive: 2 µM [inhibitor, partial curve, poor fit] | 
55 | Cc1nc2nc(-c3ccc(F)cc3)cn2nc1C | inconclusive: 20 µM [inhibitor, single point] | 
56 | Cc1cc(N2CCCC2)nc2ccc(NC(=S)NCCCN3CCC(C)CC3)cc12 |  | inactive: -2.83%
57 | CCc1nn2c(=O)c(S(=O)(=O)Nc3ccc(C)cc3C)c(C)nc2s1 |  | inactive: 9.8%
58 | Cn1cccc1/C=N/NC(=O)Cc1cccs1 |  | inactive: 1.86%
59 | CCN(CC)c1cc(NC2CCCCC2)c2c3c(onc13)-c1ccccc1C2=O | inconclusive: 31.6 µM [inhibitor, partial curve, poor fit] | 
60 | Cc1cc(C)n2nc(SC(C)C(=O)N3CCC4(CC3)OCCO4)nc2n1 (stereo not drawn) | inconclusive: 50.1 µM [inhibitor, partial curve, poor fit] | 
61 | CC(CSc1n[nH]c(=S)s1)c1ccccc1 (stereo not drawn) | inconclusive: 11.2 µM [inhibitor, partial curve] | 
62 | O=C(Nc1cccc(C(F)(F)F)c1)c1ccc2nc(-c3ccco3)c(-c3ccco3)nc2c1 | inconclusive: 25.1 µM [inhibitor, single point] | 
63 | CCOC(=O)c1ccc(N2C(=O)CC(Sc3nnc(C)s3)C2=O)cc1 (stereo not drawn) | inconclusive: 44.7 µM [inhibitor, single point] | 
64 | C=CCn1c(-c2ccc(Cl)cc2)c[nH]c1=S | inconclusive: 6.31 µM [inhibitor, partial curve] | 
65 | Cc1cc(-n2c(C)cc(C(=S)N3CCOCC3)c2C)ccc1Br |  | inactive: -19.6%
66 | O=C(Nc1nc2ccccc2[nH]1)c1ccccc1F | inconclusive: 17.8 µM [inhibitor, partial curve] | 
67 | NS(=O)(=O)c1ccc(-c2ccc(C=C3C(=O)NC(=O)NC3=O)o2)cc1 | active: 10 µM | 
68 | Cc1cccc(OCCSc2nc3ccccc3n2CC(=O)N2CCOCC2)c1C |  | inactive: 1.8%
69 | Cc1nc(S(=O)(=O)c2ccc(Cl)cc2)c(N(C)C)o1 |  | inactive: -4.1%
70 | O=c1c2ccccc2cnn1CCOc1ccccc1 | inconclusive: 35.5 µM [inhibitor, partial curve, poor fit] | 
71 | Cc1ccc(C)c(NCC(=O)NNC(=S)Nc2ccccc2)c1 | inconclusive: 10 µM [inhibitor, partial curve, poor fit] | 
72 | Cc1ccc(S(=O)(=O)NN=CC=CC=NNS(=O)(=O)c2ccc(C)cc2)cc1 | inconclusive: 35.5 µM [inhibitor, partial curve, poor fit] | 
73 | COc1cccc2cc(-c3n[nH]c(=S)n3C)oc12 | inconclusive: 3.55 µM [inhibitor, partial curve, poor fit] | 

From PubChem BioAssay AID624173 (National Center for Advancing Translational Sciences (NCATS), 2012)
